# The list shows a part of the results.
# Legend:
# Assay in all cases: glycan array binding signal (z-score within array); higher = stronger binding
# Conditions in all cases: glycan notation: IUPAC condensed, linker removed
# [1] = target: Neu5Ac(a2-3)[GalNAc(b1-4)]Gal(b1-4)GlcNAc(b1-3)GalNAc
# In short: (§1)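 Glycan array data came from 3228 arrays in the Consortium for Functional Glycomics database, and only arrays with an available protein sequence were kept. Glycan names were put into IUPAC-condensed notation, and columns mapping to the same glycan were averaged. The binding signal is a within-array Z-score, averaged across arrays of one protein sequence run at different concentrations or buffers and across linkers. A negative Z-score can be read as non-binding.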
# [2] = target: Neu5Ac(a2-3)[Neu5Ac(a2-6)]GalNAc
# In short: as §1
# Neu5Ac(a2-6)Gal = target: Neu5Ac(a2-6)Gal
# In short: as §1
# [3] = target: Neu5Ac(a2-6)Gal(b1-3)GlcNAc(b1-3)[Gal(b1-4)GlcNAc(b1-6)]Gal(b1-4)Glc
# In short: as §1
# Neu5Ac(a2-6)Gal(b1-4)Glc = target: Neu5Ac(a2-6)Gal(b1-4)Glc
# In short: as §1
# [4] = target: Neu5Ac(a2-6)Gal(b1-4)GlcNAc
# In short: as §1
# [5] = target: Neu5Ac(a2-6)Gal(b1-4)GlcNAc(b1-2)Man
# In short: as §1
# [6] = target: Neu5Ac(a2-6)Gal(b1-4)GlcNAc(b1-2)Man(a1-3)Man(b1-4)GlcNAc(b1-4)GlcNAc
# In short: as §1
# [7] = target: Neu5Ac(a2-6)Gal(b1-4)GlcNAc(b1-2)Man(a1-3)[Gal(b1-4)GlcNAc(b1-2)Man(a1-6)]Man(b1-4)GlcNAc(b1-4)GlcNAc
# In short: as §1
# [8] = target: Neu5Ac(a2-6)Gal(b1-4)GlcNAc(b1-2)Man(a1-3)[GlcNAc(b1-2)Man(a1-6)]Man(b1-4)GlcNAc(b1-4)GlcNAc
# In short: as §1
# [9] = target: Neu5Ac(a2-6)Gal(b1-4)GlcNAc(b1-2)Man(a1-3)[GlcNAc(b1-4)][Neu5Ac(a2-6)Gal(b1-4)GlcNAc(b1-2)Man(a1-6)]Man(b1-4)GlcNAc(b1-4)GlcNAc
# In short: as §1
# [10] = target: Neu5Ac(a2-6)Gal(b1-4)GlcNAc(b1-2)Man(a1-3)[Man(a1-6)]Man(b1-4)GlcNAc(b1-4)GlcNAc
# In short: as §1
# [11] = target: Neu5Ac(a2-6)Gal(b1-4)GlcNAc(b1-2)Man(a1-3)[Neu5Ac(a2-3)Gal(b1-4)GlcNAc(b1-2)Man(a1-6)]Man(b1-4)GlcNAc(b1-4)GlcNAc
# In short: as §1
# [12] = target: Neu5Ac(a2-6)Gal(b1-4)GlcNAc(b1-2)Man(a1-3)[Neu5Ac(a2-6)Gal(b1-4)GlcNAc(b1-2)Man(a1-6)]Man(b1-4)GlcNAc(b1-4)GlcNAc
# In short: as §1
# [13] = target: Neu5Ac(a2-6)Gal(b1-4)GlcNAc(b1-2)Man(a1-3)[Neu5Ac(a2-6)Gal(b1-4)GlcNAc(b1-2)Man(a1-6)]Man(b1-4)GlcNAc(b1-4)[Fuc(a1-6)]GlcNAc
# In short: as §1
# [14] = target: Neu5Ac(a2-6)Gal(b1-4)GlcNAc(b1-2)Man(a1-6)Man(b1-4)GlcNAc(b1-4)GlcNAc
# In short: as §1
# [15] = target: Neu5Ac(a2-6)Gal(b1-4)GlcNAc(b1-2)Man(a1-6)[Gal(b1-4)GlcNAc(b1-2)Man(a1-3)]Man(b1-4)GlcNAc(b1-4)GlcNAc
# In short: as §1
# [16] = target: Neu5Ac(a2-6)Gal(b1-4)GlcNAc(b1-2)Man(a1-6)[GlcNAc(b1-2)Man(a1-3)]Man(b1-4)GlcNAc(b1-4)GlcNAc
# In short: as §1
# [17] = target: Neu5Ac(a2-6)Gal(b1-4)GlcNAc(b1-2)Man(a1-6)[Man(a1-3)]Man(b1-4)GlcNAc(b1-4)GlcNAc
# In short: as §1
# [18] = target: Neu5Ac(a2-6)Gal(b1-4)GlcNAc(b1-2)[Neu5Ac(a2-6)Gal(b1-4)GlcNAc(b1-4)]Man(a1-3)[GlcNAc(b1-4)][Neu5Ac(a2-6)Gal(b1-4)GlcNAc(b1-2)[Neu5Ac(a2-6)Gal(b1-4)GlcNAc(b1-6)]Man(a1-6)]Man(b1-4)GlcNAc(b1-4)GlcNAc
# In short: as §1
# [19] = target: Neu5Ac(a2-6)Gal(b1-4)GlcNAc(b1-2)[Neu5Ac(a2-6)Gal(b1-4)GlcNAc(b1-4)]Man(a1-3)[GlcNAc(b1-4)][Neu5Ac(a2-6)Gal(b1-4)GlcNAc(b1-4)Man(a1-6)]Man(b1-4)GlcNAc(b1-4)GlcNAc
# In short: as §1
# [20] = target: Neu5Ac(a2-6)Gal(b1-4)GlcNAc(b1-2)[Neu5Ac(a2-6)Gal(b1-4)GlcNAc(b1-6)]Man(a1-6)[Neu5Ac(a2-6)Gal(b1-4)GlcNAc(b1-2)Man(a1-3)][GlcNAc(b1-4)]Man(b1-4)GlcNAc(b1-4)GlcNAc
# In short: as §1
# [21] = target: Neu5Ac(a2-6)Gal(b1-4)GlcNAc(b1-3)Gal(b1-3)GlcNAc
# In short: as §1
# [22] = target: Neu5Ac(a2-6)Gal(b1-4)GlcNAc(b1-3)Gal(b1-4)GlcNAc
# In short: as §1
# [23] = target: Neu5Ac(a2-6)Gal(b1-4)GlcNAc(b1-3)Gal(b1-4)GlcNAc(b1-2)Man(a1-3)[Neu5Ac(a2-6)Gal(b1-4)GlcNAc(b1-3)Gal(b1-4)GlcNAc(b1-2)Man(a1-6)]GalNAc
# In short: as §1
# [24] = target: Neu5Ac(a2-6)Gal(b1-4)GlcNAc(b1-3)Gal(b1-4)GlcNAc(b1-3)Gal(b1-4)GlcNAc
# In short: as §1
# [25] = target: Neu5Ac(a2-6)Gal(b1-4)GlcNAc(b1-3)Gal(b1-4)GlcNAc(b1-3)Gal(b1-4)GlcNAc(b1-2)Man(a1-3)[Neu5Ac(a2-6)Gal(b1-4)GlcNAc(b1-3)Gal(b1-4)GlcNAc(b1-3)Gal(b1-4)GlcNAc(b1-2)Man(a1-6)]GalNAc
# In short: as §1
# [26] = target: Neu5Ac(a2-6)Gal(b1-4)GlcNAc(b1-3)Gal(b1-4)GlcNAc(b1-3)GalNAc
# In short: as §1
# [27] = target: Neu5Ac(a2-6)Gal(b1-4)GlcNAc(b1-3)Gal(b1-4)GlcNAc(b1-3)[Neu5Ac(a2-6)Gal(b1-4)GlcNAc(b1-3)Gal(b1-4)GlcNAc(b1-6)]GalNAc
# In short: as §1
# [28] = target: Neu5Ac(a2-6)Gal(b1-4)GlcNAc(b1-3)Gal(b1-4)GlcNAc(b1-6)[Gal(b1-3)]GalNAc
# In short: as §1
# [29] = target: Neu5Ac(a2-6)Gal(b1-4)GlcNAc(b1-3)Gal(b1-4)[Fuc(a1-3)]GlcNAc(b1-3)Gal(b1-4)[Fuc(a1-3)]GlcNAc
# In short: as §1
# [30] = target: Neu5Ac(a2-6)Gal(b1-4)GlcNAc(b1-3)GalNAc
# In short: as §1
# [31] = target: Neu5Ac(a2-6)Gal(b1-4)GlcNAc(b1-3)[Neu5Ac(a2-6)Gal(b1-4)GlcNAc(b1-6)]GalNAc
# In short: as §1
# [32] = target: Neu5Ac(a2-6)Gal(b1-4)GlcNAc(b1-6)GalNAc
# In short: as §1
# [33] = target: Neu5Ac(a2-6)Gal(b1-4)GlcNAc(b1-6)[Gal(b1-3)GlcNAc(b1-3)]Gal(b1-4)Glc
# In short: as §1
# [34] = target: Neu5Ac(a2-6)Gal(b1-4)GlcNAc(b1-6)[Gal(b1-3)]GalNAc
# In short: as §1
# [35] = target: Neu5Ac(a2-6)Gal(b1-4)GlcNAc6S
# In short: as §1
# Neu5Ac(a2-6)GalNAc = target: Neu5Ac(a2-6)GalNAc
# In short: as §1
binder,measurement,setting,value
"Epa9 (Candida glabrata), CAGL0A01386g (protein) MGSSHHHHHHSSGLVPRGSHMDITPFAHYPRPEGCSSPPNAVSVGLHMDLYNYPYLYVKNPRTGFTNDTDSDADGETDGDSAGGIEGRAGQCWNPEYQDPNFPRYGYKKYGSFGSSDHVNGKISWDHNEFKEGCKPIMARLPTAYNYPAKITFSNFTMVLSGYFKPKSTGLYKFEIHADDFILFNFGSKNAFECCNREESIDNFGPYVAYAMWPNEADQELEVYLFEDSYYPIRLFYNNRDYHSKFMVGFYPPNTEEITYDFDGYLYMLDDTGNECKDSIRYKTVCDD",glycan array binding signal (z-score),[1],-0.443
same,glycan array binding signal (z-score),[2],-0.46
same,glycan array binding signal (z-score),Neu5Ac(a2-6)Gal,-0.398
same,glycan array binding signal (z-score),[3],0.392
same,glycan array binding signal (z-score),Neu5Ac(a2-6)Gal(b1-4)Glc,-0.436
same,glycan array binding signal (z-score),[4],-0.397
same,glycan array binding signal (z-score),[5],-0.458
same,glycan array binding signal (z-score),[6],-0.392
same,glycan array binding signal (z-score),[7],-0.161
same,glycan array binding signal (z-score),[8],-0.419
same,glycan array binding signal (z-score),[9],-0.416
same,glycan array binding signal (z-score),[10],-0.06
same,glycan array binding signal (z-score),[11],-0.408
same,glycan array binding signal (z-score),[12],-0.324
same,glycan array binding signal (z-score),[13],-0.442
same,glycan array binding signal (z-score),[14],-0.439
same,glycan array binding signal (z-score),[15],0.222
same,glycan array binding signal (z-score),[16],-0.479
same,glycan array binding signal (z-score),[17],-0.467
same,glycan array binding signal (z-score),[18],-0.367
same,glycan array binding signal (z-score),[19],-0.431
same,glycan array binding signal (z-score),[20],-0.428
same,glycan array binding signal (z-score),[21],-0.133
same,glycan array binding signal (z-score),[22],-0.223
same,glycan array binding signal (z-score),[23],0.69
same,glycan array binding signal (z-score),[24],0.022
same,glycan array binding signal (z-score),[25],-0.172
same,glycan array binding signal (z-score),[26],-0.082
same,glycan array binding signal (z-score),[27],-0.112
same,glycan array binding signal (z-score),[28],0.4
same,glycan array binding signal (z-score),[29],-0.061
same,glycan array binding signal (z-score),[30],-0.035
same,glycan array binding signal (z-score),[31],-0.357
same,glycan array binding signal (z-score),[32],-0.438
same,glycan array binding signal (z-score),[33],-0.304
same,glycan array binding signal (z-score),[34],0.562
same,glycan array binding signal (z-score),[35],-0.431
same,glycan array binding signal (z-score),Neu5Ac(a2-6)GalNAc,-0.477
